{"source": "paper PMC9911399", "about": "“Two distinct binding modes provide the RNA-binding protein RbFox with extraordinary sequence specificity”", "binders": {"B1": {"name": "GUUUAGA (DNA:RNA)", "RNA": "GGGAGACCGGAAUUCAGAUUGUCCGUUUAGAUUAAAUCCCGUCGUAGCCACCA", "DNA 1": "CAATCTGAATTCCGGTCTCCC", "DNA 2": "TGGTGGCTACGACGGGATT"}, "B2": {"name": "AUGGGCU (DNA:RNA)", "RNA": "B1 RNA with G25A, U27G, U28G, A29G, G30C, A31U", "DNA 1": "CAATCTGAATTCCGGTCTCCC", "DNA 2": "TGGTGGCTACGACGGGATT"}, "B3": {"name": "CAAUAUU (DNA:RNA)", "RNA": "B1 RNA with G25C, U26A, U27A, G30U, A31U", "DNA 1": "CAATCTGAATTCCGGTCTCCC", "DNA 2": "TGGTGGCTACGACGGGATT"}, "B4": {"name": "UGGUCCA (DNA:RNA)", "RNA": "B1 RNA with G25U, U26G, U27G, A29C, G30C", "DNA 1": "CAATCTGAATTCCGGTCTCCC", "DNA 2": "TGGTGGCTACGACGGGATT"}, "B5": {"name": "AGUCUAG (DNA:RNA)", "RNA": "B1 RNA with G25A, U26G, U28C, A29U, G30A, A31G", "DNA 1": "CAATCTGAATTCCGGTCTCCC", "DNA 2": "TGGTGGCTACGACGGGATT"}, "B6": {"name": "AUCGCUA (DNA:RNA)", "RNA": "B1 RNA with G25A, U27C, U28G, A29C, G30U", "DNA 1": "CAATCTGAATTCCGGTCTCCC", "DNA 2": "TGGTGGCTACGACGGGATT"}, "B7": {"name": "UAUAAAC (DNA:RNA)", "RNA": "B1 RNA with G25U, U26A, U28A, G30A, A31C", "DNA 1": "CAATCTGAATTCCGGTCTCCC", "DNA 2": "TGGTGGCTACGACGGGATT"}, "B8": {"name": "UGGGACU (DNA:RNA)", "RNA": "B1 RNA with G25U, U26G, U27G, U28G, G30C, A31U", "DNA 1": "CAATCTGAATTCCGGTCTCCC", "DNA 2": "TGGTGGCTACGACGGGATT"}, "B9": {"name": "GAUGUAG (DNA:RNA)", "RNA": "B1 RNA with U26A, U28G, A29U, G30A, A31G", "DNA 1": "CAATCTGAATTCCGGTCTCCC", "DNA 2": "TGGTGGCTACGACGGGATT"}, "B10": {"name": "CGGCGCG (DNA:RNA)", "RNA": "GGGAGACCGGAAUUCAGAUUGUCCCGGCGCGUUAAAUCCCGUCGUAGCCACCA", "DNA 1": "CAATCTGAATTCCGGTCTCCC", "DNA 2": "TGGTGGCTACGACGGGATT"}, "B11": {"name": "UAGUAAC (DNA:RNA)", "RNA": "B1 RNA with G25U, U26A, U27G, G30A, A31C", "DNA 1": "CAATCTGAATTCCGGTCTCCC", "DNA 2": "TGGTGGCTACGACGGGATT"}, "B12": {"name": "CCUGUCC (DNA:RNA)", "RNA": "B10 RNA with G26C, G27U, C28G, G29U, G31C", "DNA 1": "CAATCTGAATTCCGGTCTCCC", "DNA 2": "TGGTGGCTACGACGGGATT"}, "B13": {"name": "GUGCGCU (DNA:RNA)", "RNA": "B10 RNA with C25G, G26U, G31U", "DNA 1": "CAATCTGAATTCCGGTCTCCC", "DNA 2": "TGGTGGCTACGACGGGATT"}, "B14": {"name": "ACCACGG (DNA:RNA)", "RNA": "B10 RNA with C25A, G26C, G27C, C28A, G29C, C30G", "DNA 1": "CAATCTGAATTCCGGTCTCCC", "DNA 2": "TGGTGGCTACGACGGGATT"}, "B15": {"name": "AUACCCG (DNA:RNA)", "RNA": "B10 RNA with C25A, G26U, G27A, G29C", "DNA 1": "CAATCTGAATTCCGGTCTCCC", "DNA 2": "TGGTGGCTACGACGGGATT"}, "B16": {"name": "GUUAAUA (DNA:RNA)", "RNA": "B1 RNA with U28A, G30U", "DNA 1": "CAATCTGAATTCCGGTCTCCC", "DNA 2": "TGGTGGCTACGACGGGATT"}, "B17": {"name": "AAGACGA (DNA:RNA)", "RNA": "B1 RNA with G25A, U26A, U27G, U28A, A29C", "DNA 1": "CAATCTGAATTCCGGTCTCCC", "DNA 2": "TGGTGGCTACGACGGGATT"}, "B18": {"name": "AGCAGAU (DNA:RNA)", "RNA": "B10 RNA with C25A, G27C, C28A, C30A, G31U", "DNA 1": "CAATCTGAATTCCGGTCTCCC", "DNA 2": "TGGTGGCTACGACGGGATT"}, "B19": {"name": "AGACAGA (DNA:RNA)", "RNA": "B1 RNA with G25A, U26G, U27A, U28C", "DNA 1": "CAATCTGAATTCCGGTCTCCC", "DNA 2": "TGGTGGCTACGACGGGATT"}, "B20": {"name": "CUCAUGG (DNA:RNA)", "RNA": "B10 RNA with G26U, G27C, C28A, G29U, C30G", "DNA 1": "CAATCTGAATTCCGGTCTCCC", "DNA 2": "TGGTGGCTACGACGGGATT"}}, "note": "Numbering of substitutions follows the chain as printed; changes in the protein carry UniProt numbers. The list shows a part of the results.", "data": [{"target": "T1, RBFOX1 RRM (Homo sapiens, UniProt Q9NWB1 109-208)", "T1 sequence": "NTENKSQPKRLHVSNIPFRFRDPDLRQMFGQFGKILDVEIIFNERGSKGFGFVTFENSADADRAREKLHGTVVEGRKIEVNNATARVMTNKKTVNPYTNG", "experiment": "EMSA; HiTS-Eq, 1 nM pool, 10 min; buffer printed only for the single-RNA assays: 10 mM Tris pH 7.5, 150 mM NaCl, 3.4 mM EDTA, 0.001% NP-40, 30 C", "details": "tags: His6 N-terminal (pET28a); label: 5' 32P", "outline": "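These values rest on relative association constants, computed from read-count changes of each RNA species versus the control reaction and normalised to the cognate motif. Reads came from free RNA recovered by 8% native PAGE after purified RbFox RRM (wild type or mutant) at increasing concentrations was equilibrated for 10 min in 50 µL with 1 nM of a 5′-radiolabelled pool with 7 randomized nucleotides and DNA-annealed flanks.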", "values": [{"binder": "B1", "binding signal": "0.015 KA relative to UGCAUGU"}, {"binder": "B2", "binding signal": "0.0189 KA relative to UGCAUGU"}, {"binder": "B3", "binding signal": "0.000816 KA relative to UGCAUGU"}, {"binder": "B4", "binding signal": "0.00831 KA relative to UGCAUGU"}, {"binder": "B5", "binding signal": "0.00581 KA relative to UGCAUGU"}, {"binder": "B6", "binding signal": "0.00293 KA relative to UGCAUGU"}, {"binder": "B7", "binding signal": "0.00347 KA relative to UGCAUGU"}, {"binder": "B8", "binding signal": "0.0159 KA relative to UGCAUGU"}, {"binder": "B9", "binding signal": "0.0159 KA relative to UGCAUGU"}, {"binder": "B10", "binding signal": "0.0184 KA relative to UGCAUGU"}, {"binder": "B11", "binding signal": "0.0109 KA relative to UGCAUGU"}, {"binder": "B12", "binding signal": "0.0112 KA relative to UGCAUGU"}, {"binder": "B13", "binding signal": "0.0163 KA relative to UGCAUGU"}, {"binder": "B14", "binding signal": "0.0054 KA relative to UGCAUGU"}, {"binder": "B15", "binding signal": "0.000677 KA relative to UGCAUGU"}, {"binder": "B16", "binding signal": "0.00376 KA relative to UGCAUGU"}, {"binder": "B17", "binding signal": "0.00419 KA relative to UGCAUGU"}, {"binder": "B18", "binding signal": "0.00663 KA relative to UGCAUGU"}, {"binder": "B19", "binding signal": "0.00907 KA relative to UGCAUGU"}, {"binder": "B20", "binding signal": "0.00796 KA relative to UGCAUGU"}]}]}
